Laboratory results as given in PubChem BioAssay AID686979 (National Center for Advancing Translational Sciences (NCATS), 2013).
The campaign covered roughly 420,000 compounds. About 50,000 (12%) were called active. The shares of active, inactive and inconclusive entries below differ from those in the screen. The call rests on the fitted dose curve; in most records, active means well fitted inhibition curve with a large enough effect; inconclusive means small, poorly fitted or top-dose-only effect; inactive means flat fitted curve, though single readings scatter. No potency is given beside an inconclusive call; the fits are too rough.
On the % scale 0 is the no-effect control and ±100 the full control effect; potency means the concentration at half of the fitted maximal effect; tags describe the fitted curve by direction and shape.

Test: qHTS for Inhibitors of human tyrosyl-DNA phosphodiesterase 1 (TDP1): qHTS in cells in presence of CPT; further: nearly all actives have a fitted effect of over 55% in size
Conditions: chicken DT40 Tdp1-/-;hTDP1 cells + 20 nM CPT, ATP luminescence, 48 h; activity change, negative = growth inhibition: at 46.2 µM (top of the series) unless noted
How it was run: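 Chicken DT40 Tdp1-/- cells stably complemented with human TDP1 were seeded at 400 cells/well in medium containing 20 nM camptothecin, exposed to pin-transferred compounds, and grown at 37 °C for at least 48 hr. Viability was read as ATP luminescence.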
In the case of `NC(Cc1ccc(F)cc1)c1csc(Nc2ccc(C(=O)c3ccccc3)cc2)n1` (centres undefined), the Potency is reported as inconclusive [inhibitor, single point]. With `O=C(Cn1c2ncccc2c(=O)n1-c1ccccc1)Nc1ccc(Cl)cc1C(F)(F)F` the Potency was inconclusive [inhibitor, partial curve]. With `COc1ccc(C)cc1-n1c(-c2ccc(C)cc2)cc2c1CC(C)(C)CC2=O` the Potency was active: 8.2 µM. For `CCOC(=O)Cc1cc(=O)n2[nH]cc(-c3cccc(Br)c3)c2n1`, the Potency was inconclusive [inhibitor, single point]. In the case of `COCCCn1c(SCc2nnc(-c3ccc(OC)c(OC)c3)o2)nc2ccccc2c1=O`, the Potency is reported as inconclusive [inhibitor, single point]. In the case of `Cc1ccccc1CNC(=O)c1ccc2nc(N3CCOCC3)sc2c1`, the Potency is reported as inconclusive [inhibitor, single point]. With `COc1ccc(CCN(C)Cc2c(O)ccc3ccccc23)cc1OC` the Potency was inconclusive [inhibitor, single point]. With `O=[N+]([O-])c1cc(/C=N\Nc2nc(-c3ccccc3)cs2)ccc1O` the Potency was active: 14.6 µM. For `CSCCC(NS(=O)(=O)c1cccc(C(F)(F)F)c1)C(=O)N(C)Cc1ccc2c(c1)OCCO2` (centres undefined), the activity change, negative = growth inhibition was inconclusive: -30.8% [inhibitor]. For `CC(=O)Nc1nc(-c2cccc3ccccc23)cs1`, the Potency was active: 14.6 µM. With `Cn1c(SCc2ccccc2Br)nc2ccccc2c1=O` the Potency was inconclusive [inhibitor, single point]. With `COc1ccc(NC(=O)c2ccc(-c3ccc(C(C)=O)cc3)o2)cn1` the Potency was inconclusive [inhibitor, single point]. With `O=C(Nc1ccc(Cl)cn1)c1cccc(S(=O)(=O)N2CCOCC2)c1` the Potency was “inactive”. For `CC[C@]1(C(=O)OC)[C@H]2C(=O)N(C)C(=O)[C@H]2[C@H]2CN=C(SCc3ccc(C(=O)OC)cc3)N21`, the Potency was inconclusive [inhibitor, single point]. In the case of `O=[N+]([O-])c1cccc(N/N=C/c2ccc(N3CCOCC3)cc2)c1`, the Potency is reported as active: 18.4 µM. In the case of `O=C(O)CSCCc1ccccn1`, the Potency is reported as inconclusive [inhibitor, single point]. In the case of `COc1ccc(C(=O)c2coc3ccc(OC(C)=O)cc23)cc1`, the Potency is reported as inconclusive [inhibitor, single point]. For `Cc1cc(NC(=O)CSCC(=O)Nc2cccc(S(=O)(=O)N3CCCCCC3)c2)no1`, the Potency was “inactive”. With `COc1ccc(OCC(=O)Nc2cc(-c3nn(C)c(=O)c4ccccc34)ccc2OC)cc1` the Potency was active: 16.4 µM.
